Over roughly 5,400 compounds, “IFI” has its median near 2; the highest 2% begin near 22. The list shows a part of the results.
test: NOVARTIS: Inhibition Frequency Index (IFI) - the number of HTS assays where a compound showed > 50% inhibition/induction, expressed as a percentage of the number of assays in which the compound was tested.; assay type: functional

Row | Compound | IFI [%]
1 | C/C(Cl)=C/C[N+]1(CC#Cc2cccc3ccccc23)CCOCC1 | 3.03
2 | Cc1cccc(OCC(O)CN2CCN(CC(=O)c3ccc(Br)cc3)CC2)c1 (stereo not drawn) | 3.08
3 | COc1ccccc1NC(=O)c1n[nH]c(=O)c2ccccc12 | 0
4 | CCCCC(=O)Oc1ccccc1-c1nc2cc(C)ccn2c1NC(C)(C)CC(C)(C)C | 4.67
5 | C=CCN1C(=O)/C(=C\c2ccccc2)C(C(=O)OC)=C1C | 5.26
6 | NC(=O)/C(=C\c1cccc2ccccc12)NC(=O)c1ccccc1 | 0
7 | CCN1/C(=C/c2ccc3cc(OC)ccc3[n+]2CC)Sc2cc(C)ccc21 | 21.8
8 | COC(=O)C1=C(C)N(C)C(C)=C(C(=O)OC)C1c1ccc(C)cc1 | 2.35
9 | O=C(CN(CCN1CCOCC1)S(=O)(=O)c1ccccn1)N1CCN(C(c2ccccc2)c2ccccc2)CC1 | 0
10 | CCC(C)(C)n1nnnc1C(c1cc2cc(C)cc(C)c2[nH]c1=O)N1CCN(c2ccc(O)cc2)CC1 (stereo not drawn) | 2.73
11 | COc1ccccc1Nc1nc2cc([N+](=O)[O-])c([N+](=O)[O-])cc2nc1Nc1cccc(Cl)c1 | 0
12 | O=C(CC1SC(=Nc2ccccc2)NC1=O)Nc1cc(Cl)ccc1Cl (stereo not drawn) | 3.45
13 | CCc1ccccc1N1C(=O)CN(Cc2ccccc2)C1=S | 0
14 | OC1CCCCC1C1(NC(=S)Nc2ccccc2)CCCCC1 (stereo not drawn) | 2.13
15 | Cc1ccn2c(NC(C)(C)CC(C)(C)C)c(-c3ccccc3OC(=O)C34CC5CC(CC(C5)C3)C4)nc2c1 | 2.04
16 | O=C(O)c1ccc(S(=O)(=O)c2ccc3c(c2)C(=O)N(c2ccc(Sc4ccc([N+](=O)[O-])cc4)cc2)C3=O)cc1 | 0
17 | O=C(CN1CCN(C(=O)c2ccccc2)CC1)Nc1ccc(-c2nc3cc(NC(=O)CN4CCN(C(=O)c5ccccc5)CC4)ccc3o2)cc1 | 3.75
18 | Clc1ccc(C2Nc3ccc4ccccc4c3C3C=CCC32)c(Cl)c1 (stereo not drawn) | 0
19 | C=CCSc1nnc2c(n1)[nH]c1ccc(OCC)cc12 | 11.3
20 | O=C(NN=CC(Br)=Cc1ccccc1)c1ccc(F)cc1 | 0
21 | CCCCCCCCCCCCOCCCNC(=O)c1cccc(N)c1 | 1.97
22 | CCOc1cc(Br)cc(C=NNC(=O)COc2cccc(C)c2)c1O | 5.15
23 | CC1=C(C(=O)OCCOc2ccccc2)C(c2cccc([N+](=O)[O-])c2)C2=C(CCCC2=O)N1 (stereo not drawn) | 0
24 | Cc1ccc(NC(=O)c2cc(C(=O)c3cc(Cl)ccc3O)cn(-c3ccc(C)cc3C)c2=O)c(C)c1 | 6.25

Row | Compound | IFI [%]
25 | Cn1c(=O)n(Cc2ccccc2)c(=O)c2c1nc(SCC(=O)Nc1ccccc1)n2Cc1ccccc1 | 0
26 | CC(C)=CCCC1=CCC(CNCCCN(C)C)C(C)C1 (stereo not drawn) | 8.96
27 | CC(C)CNC(=O)c1cnc(NCCCn2ccnc2)nc1NCCc1ccccc1 | 0.962
28 | CCCCC(=O)Nc1ccccc1-c1nnn(CC(=O)Nc2ccc3c(c2)OCCO3)n1 | 0
29 | OCC[n+]1ccc(/C=C/c2c[nH]c3ccccc23)cc1 | 2.27
30 | Cc1ccccc1NC(=S)NC(Cc1ccccc1)c1ccccc1 (stereo not drawn) | 6.82
31 | CN(CCCNc1ccnc2cc(Cl)ccc12)C(=O)c1ccc2c(c1)OCO2 | 1.87
32 | O=C(NC(=S)Nc1ccc([N+](=O)[O-])cc1Cl)c1ccco1 | 0
33 | CCC(Sc1nc2ccccc2n1C(C)=O)C(=O)NC1=NN=C(c2ccc(Br)cc2)CS1 (stereo not drawn) | 5.71
34 | COc1cccc(-n2sc3c(c2=S)-c2cc(OC)ccc2NC3(C)C)c1 | 3.68
35 | CC(C)(C)NC(=S)NN=CC=NNC(=S)NC(C)(C)C | 4.72
36 | O=C(/C=C/c1ccccc1)Nc1ccccc1C(=O)Nc1ccc(-c2nc3ccc(NC(=O)c4ccccc4NC(=O)/C=C/c4ccccc4)cc3[nH]2)cc1 | 15.4
37 | Cc1ccc(C)c(N2C(=O)CC(Cc3ccc(Cl)cc3)C2=O)c1 (stereo not drawn) | 0
38 | COc1ccc(CNC(=O)C(Cc2c[nH]c3ccccc23)N2CCS(=O)(=O)CC2)cc1 (stereo not drawn) | 1.28
39 | CC(c1nc2ccccc2c(=O)n1-c1ccccc1Cl)N(Cc1ccccc1)C(=O)Nc1cccc(Br)c1 (stereo not drawn) | 5.88
40 | CN1CCN(c2c3c(c(C#N)c4nc5ccccc5n24)CCC3)CC1 | 0.671
41 | C=CCOc1ccc(C2C(C(=O)OCC)=C(C)N=c3sc(=Cc4ccccc4O)c(=O)n32)cc1OCC (stereo not drawn) | 2.35
42 | COc1ccc(CNC2CCN(Cc3ccccc3)CC2)cc1OCc1ccccc1 | 14.3
43 | Cc1ccc(C2CC(=O)N3CN(c4ccc(Br)cc4)CSC3=C2C#N)o1 (stereo not drawn) | 0
44 | CC1CCCCN1CCCNc1ncc(C(=O)NCc2ccccc2)c(NCC2CCCCC2)n1 (stereo not drawn) | 0.971
45 | CCOC(=O)c1cnc2c(ccc3ccccc32)c1Nc1ccc(NC(C)=O)cc1 | 0
46 | Cc1ccc(-c2cc(N3CCCC3CO)n3nccc3n2)cc1 (stereo not drawn) | 3.03
47 | CCOC(=O)C1=C(C)NC2=C(C(=O)C(C(=O)OCC)C(c3ccccc3OC)C2)C1c1cccs1 (stereo not drawn) | 4.49
48 | COc1cc(OC)cc(-n2nc(C(=O)NC3CCCCC3)c3ccccc3c2=O)c1 | 2.41

Row | Compound | IFI [%]
49 | C[n+]1ccc(C=Cc2ccc(O)cc2)cc1 | 2.21
50 | COc1cc(OC)cc(C(=O)NCc2n[nH]c(=S)n2-c2cccc(C(F)(F)F)c2)c1 | 2.38
51 | Cc1cc(C)n(CC(O)Cn2c3ccc(Cl)cc3c3cc(Cl)ccc32)n1 (stereo not drawn) | 0.694
52 | O=C(NCc1ccco1)C1CCCN(c2cccc3c2C(=O)N(CCc2cccc(F)c2)C3=O)C1 (stereo not drawn) | 6
53 | COC(=O)C1=C(C)NC2=C(C(=O)CC(c3ccc(OC)c(OC)c3)C2)C1c1ccc(Cl)cc1Cl (stereo not drawn) | 6.02
54 | CC[n+]1c(/C=C/c2ccc(F)cc2)ccc2ccccc21 | 5.1
55 | CN(C)c1cc[n+](CC(=O)c2ccc(Cl)cc2)cc1 | 0
56 | COc1cc(NC(C)CCCN(Cc2ccc(Cl)cc2)C(=O)Nc2cccc(C(F)(F)F)c2)c2ncccc2c1 (stereo not drawn) | 2.7
57 | CC[n+]1c(C=CN(C)c2ccccc2)oc(-c2ccccc2)c1-c1ccccc1 | 22.7
58 | O=C(Nc1cccnc1)c1cc(-c2cccnc2)nc2ccc(Cl)cc12 | 0
59 | CC(C)C[C@@H](NC(=O)[C@H](C)NC(=O)CNC(=O)[C@@H](NC=O)C(C)C)C(=O)N[C@@H](C)C(=O)N[C@@H](C(=O)N[C@H](C(=O)N[C@@H](C(=O)N[C@@H](Cc1c[nH]c2ccccc12)C(=O)N[C@H](CC(C)C)C(=O)N[C@@H](Cc1c[nH]c2ccccc12)C(=O)N[C@H](CC(C)C)C(=O)N[C@@H](Cc1c[nH]c2ccccc12)C(=O)N[C@H](CC(C)C)C(=O)N[C@@H](Cc1c[nH]c2ccccc12)C(=O)NCCO)C(C)C)C(C)C)C(C)C | 27.6
60 | CC1(C)C2CCC1(C)C(NCc1ccccc1O)C2 (stereo not drawn) | 1.49
61 | Cc1ncc(CN2CCC(C(=O)Nc3ccc(-n4cccn4)cc3)CC2)s1 | 0
62 | CCCCCc1ccc(OCCCC[n+]2cccc(C)c2)c(CCCCC)c1 | 14.7
63 | Cc1ccn2c(NC(C)(C)CC(C)(C)C)c(-c3ccccc3OC(=O)c3ccc(Cl)cc3Cl)nc2c1 | 5.66
64 | COc1ccc(Nc2ccccc2NC(=O)c2cccc(N(C)C)c2)cc1 | 0
65 | C[n+]1ccc(/C=C/c2c[nH]c3ccccc23)cc1 | 7.46
66 | CCCCOc1ccc(NC2=C(N3CCCCC3)C(=O)c3ccccc3C2=O)cc1 | 11
67 | COc1ccc(S(=O)(=O)N(C)CCCNc2ccnc3cc(Cl)ccc23)cc1 | 10.2
68 | CCc1ccc(C(=O)C[n+]2cc(-c3ccc(OC)cc3)n3c2CCC3)cc1 | 2.44
69 | CCCCCCOc1ccc(NC(=O)c2ccco2)cc1 | 0
70 | Cc1ccccc1C(=O)N1CCC(n2nccc2NC(=O)CCOc2ccccc2)CC1 | 0
71 | CC(=O)Nc1ccc(S(=O)(=O)N(C)CC(=O)NN=Cc2ccncc2)cc1 | 0
72 | CC(C)(C)C1CCc2[nH]c3ccccc3c(=O)c2C1 (stereo not drawn) | 0

Row | Compound | IFI [%]
73 | Cc1ccc(Nc2nc(NN=Cc3ccc(-c4ccc([N+](=O)[O-])cc4)o3)nc(Nc3ccccc3)n2)c(C)c1 | 0
74 | O=C(NCCCCNc1ccnc2cc(Cl)ccc12)c1ccc([N+](=O)[O-])cc1 | 3.74
75 | CCN(CC)c1scc(-c2ccc(Cl)cc2)[s+]1 | 3.08
76 | CCn1c2ccccc2c2cc(C=NNC(=O)c3nnn(-c4nonc4N)c3-c3ccccc3)ccc21 | 0
77 | O=[N+]([O-])c1cc([N+](=O)[O-])c2cccnc2c1Nc1cccc2cccnc12 | 10
78 | COc1ccc(/C=C/C(=O)Nc2ccncc2)cc1OC | 2.9
79 | Cc1cc(C)c(S(=O)(=O)N2CCCC2CNC(=O)c2cccc([N+](=O)[O-])c2)c(C)c1 (stereo not drawn) | 0
80 | C1=C(c2ccc(CN3CCCCC3)cc2)N2CCN=C2c2ccccc21 | 2.98
81 | O=C(CN1CCCC1)Nc1ccc(-c2nc3cc(NC(=O)CN4CCCC4)ccc3o2)cc1 | 5.41
82 | CC(NS(=O)(=O)c1ccccc1)C(=O)NC1CCCC1 (stereo not drawn) | 0
83 | c1ccc(C[C@H]2CN(c3ccc4ccccc4c3)CCN2CCNCC2CCCO2)cc1 (stereo partly drawn) | 3.66
84 | O=C(Nc1ccc(Cl)cc1)Nc1ccc(Br)cn1 | 4.17
85 | Cc1ccn2c(NC(C)(C)CC(C)(C)C)c(-c3ccccc3OC(=O)C3CCC3)nc2c1 | 2.8
86 | CCCN(C(=O)Nc1c(C(C)C)cccc1C(C)C)C(CC)c1nc2ccccc2c(=O)n1-c1cccc(C)c1 (stereo not drawn) | 0.943
87 | N#CN=C(N)c1sc(Nc2ccccc2)nc1N | 15.4
88 | CC(C)(C)CC(C)(C)Nc1c(-c2ccccc2OC(=O)c2ccccc2Cl)nc2ccccn12 | 4.72
89 | COc1cc(NC(C)CCCN(Cc2ccccc2OC)C(=O)C(Cl)Cl)c2ncccc2c1 (stereo not drawn) | 7.14
90 | CC(C)C1Oc2cc3oc(=O)ccc3cc2C1=NO (stereo not drawn) | 3.12
91 | O=C1c2cccc(N3CCN(Cc4cccn4-c4nccs4)CC3)c2C(=O)N1Cc1ccc(Cl)cc1 | 2.59
92 | COc1cc(OC)cc(C(=O)NCc2n[nH]c(=S)n2-c2cccc(Cl)c2)c1 | 1.15
93 | CCOC(=O)C1=C(C)NC2=C(C(=O)CC(c3ccc(Cl)cc3)C2)C1c1ccc(Br)cc1 (stereo not drawn) | 5.88

From ChEMBL document CHEMBL1156829
